Experimental data published in PubChem BioAssay (NCI).
Values joined by “and” are separate entries in the source; they are usually repeats but may differ in a detail not shown here. Identical values can stand only once.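 Values below derive from 48-hour exposures of cells grown in 96-well plates, with endpoints linearly interpolated between the two concentrations bracketing the appropriate inhibition level. GI50 is the concentration that inhibits growth by half. Definition used: TGI = concentration required for complete inhibition of growth.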 Numbered stars: 1 amine (or outer) side, 2 acyl side, 3 side chain; on linkers, the order of the positions; unused ones are H or OH. Bridge positions count the residues as written; N and C are the ends. Square brackets hold non-standard residues; d marks the D form. Peptide text beside a SMILES is read from it. I, II: the chains in the order shown. Actinocin(1to9) = Cc1c2oc3c(C)ccc(C(=O)[*:2])c3nc-2c(C(=O)[*:1])c(N)c1=O; NMeY = CN[CH](Cc1ccc(O)cc1)C(=O)O; Sar = CNCC(=O)O

Test system: NCI-H322M lung
Assay: NCI-60 cell line screen, 48 h

Row | Compound | TGI | GI50
1 | CCN(CC)C(=S)N/N=C(/c1ccccc1)c1ccccn1 | 51.6 µM | 
2 | COc1ccc2nc3cc(Cl)ccc3c(Nc3cc(CN4CCCC4)c(O)c(CN4CCCC4)c3)c2n1 | 6.09 µM | 2.13 µM
3 | CN(C)CCCNC(=O)N/N=C/c1ccccc1 | > 100 µM | 
4 | CC(SCc1ccccc1)C(=O)O (configuration not stated) | > 100 µM | 
5 | C[C@@H]1CC[C@@]2(NC1)O[C@H]1C[C@H]3[C@@H]4CC[C@H]5C[C@@H](O)CC[C@]5(C)[C@H]4CC[C@]3(C)[C@H]1[C@@H]2C | > 100 µM | 
6 | CCC1([N+](=O)[O-])CN(N=O)C1 | > 100 µM | 
7 | CC(=O)Oc1ccc2c(-c3ccccc3)c(Oc3ccc(Cl)cc3)c(=O)oc2c1 | 29.2 µM | 
8 | CSc1ccc(/C=C2\N=C(c3ccccc3)N(c3nc4cc(Cl)c(F)cc4s3)C2=O)cc1 | > 100 µM | 
9 | CCOC(=O)/C=C/c1cccc(F)c1 | > 100 µM | 
10 | CC(C)c1ccc(NC(=O)Cc2ccc(Nc3ncnc4cc(-c5cnn(CCN(C)C)c5)ccc34)cc2)cc1 | 5.06 µM | 1.82 µM
11 | Cc1c(C(=O)NNc2ccccc2)n2c(=S)[nH]nc2c2ccccc12 | > 100 µM | 
12 | CC1(C)C=C(/C=C2/N(S(=O)(=O)C(F)(F)F)C(/C=C3/N(S(=O)(=O)C(F)(F)F)C(C)(C#N)CC3(C)C)=CC2(C)C)N=C1/C=C1/CC(C)(C)C(=O)N1 (configuration not stated) | > 100 µM | 
13 | CC(C)(C)OC(=O)N[C@@H](Cc1ccccc1)C(=O)N(Cc1ccccc1)C1(C(=O)NCc2ccccc2)CCN(Cc2ccccc2)CC1 | > 100 µM | 9.37 µM
14 | COc1ccc(C2c3cc4c(cc3OC(Nc3ccccc3)C2C)OCO4)cc1 (configuration not stated) | > 100 µM | 
15 | C=C1[C@@H]2CCC3[C@]4(C)C(CC[C@@]5(C)C(=O)O[C@H](O)[C@@H]45)[C@H](O)[C@]3(C2)[C@H]1OC1OC(CO)C(O)C(O)C1O (some centres not stated) | > 50 µM | 
16 | CC1=C(C)SC(=C2Sc3c(n(C)c(=O)n(C)c3=O)S2)S1 | > 100 µM | 
17 | O=C1CSC(c2c[nH]c3ccccc23)N1c1ccc(Cl)cc1Cl (configuration not stated) | > 100 µM | 
18 | CC1c2[nH]c3ccccc3c2CCN1O (configuration not stated) | > 100 µM | 
19 | Cc1nc2c(=O)n(-c3ccccc3)c(=O)n(-c3ccccc3)c2o1 | > 100 µM | 
20 | COc1ccc([C@]23CCC4(OCC(C)(C)CO4)[C@H]4CON(O[C@H](O[C@@H]5CCCCC5C(C)(C)c5ccccc5)C2)[C@@H]43)cc1OC (some centres not stated) | > 100 µM | 
21 | COc1cc2c3c(n(CCCNCCCN)c(=O)c2cc1OC)-c1cc2c(cc1C3=O)OCO2 | 12.8 µM | 2.45 µM
22 | O=C1c2cc3c(cc2CC12Cc1ccc4c(c1C2=O)CCC4)CCC3 (configuration not stated) | > 100 µM | 

Row | Compound | TGI | GI50
23 | CC/C=N\N1C(N)=C(C#N)C(C#N)(C#N)C1CC (configuration not stated) | > 100 µM | 
24 | N#Cc1cccc(N2C(=O)C3C4C=CC(C3C2=O)C2C(=O)N(c3cccc(C#N)c3)C(=O)C42)c1 (configuration not stated) | > 63.1 µM | 
25 | CC(C)(C)N=NC(C)(C)N=C=O | > 100 µM | 
26 | O=C1NC2C(O)CCCCC2C12CCCCC2 (configuration not stated) | > 100 µM | 
27 | Cc1cccc2c1CC(Cc1ccccc1C(=O)O)C2=O (configuration not stated) | > 100 µM | 
28 | CCc1nc2c(c(N(C)C)c1C(=O)OC)CCc1ccccc1-2 | > 100 µM | 
29 | CN1c2ccccc2C2=C(c3ccccc3)CC[C@@H](C(=O)N3C4CC5CC[C@@]4(CS3(=O)=O)C5(C)C)[C@@H]21 (some centres not stated) | > 100 µM | 
30 | CC(=O)/C(=N\Nc1ccc(Cl)cc1)C(C)=Nc1ccc(C)cc1 | > 100 µM | 
31 | COc1ccc(C2C=C(c3ccc(C)cc3)N(c3ccc(OC)cc3[N+](=O)[O-])C3C(=O)OC(=O)C23)c(OC)c1 (configuration not stated) | 81.3 µM | 
32 | O=C(O)c1ccc(SSc2ccc(C(=O)O)cn2)nc1 | > 100 µM | 
33 | Nc1c2ccccc2nc2c(C(=O)Nc3ccc(S(N)(=O)=O)cc3)cccc12 | > 100 µM | 
34 | CCC1(CC)C(=O)N(C(=O)c2cc(OC)c(OC)c(OC)c2)N(C(=O)c2cc(OC)c(OC)c(OC)c2)C1=O | > 50 µM | 
35 | C/C(=C\CSCC(N)C(=O)O)CC/C=C(\C)CNc1ccccc1 (configuration not stated) | > 100 µM | 
36 | CSc1ncc2c(n1)-c1ccccc1OC2NC1CC1 (configuration not stated) | > 100 µM | 
37 | Nc1ccc(/C=C/c2ccc3cccnc3c2)cc1 | > 100 µM | 
38 | O=C(Nc1nn(C(=O)c2cccnc2)c(=O)s1)c1ccc(Cl)cc1 | > 100 µM | 
39 | CCCn1cc2c3c(cccc31)C1C=C(C)CN(C)C1C2 (configuration not stated) | 57 µM | 
40 | CC(=O)[CH-]C(=O)c1ccccc1.CC(=O)[CH-]C(=O)c1ccccc1.[O-]c1ccc2c(c1)OCO2.[O-]c1ccc2c(c1)OCO2.[Ti+4] | > 100 µM | 39.8 µM
41 | O=C(/C=C/C12c3ccccc3C(c3ccccc31)C1C(=O)NC(=O)C12)c1ccccc1 (configuration not stated) | 3.35 µM | 1.64 µM
42 | COc1cc(C(=O)c2cocc2C(=O)c2ccc3c(c2)OCO3)cc(OC)c1OC | > 58.9 µM | 
43 | C[C@H]1[C@H](C)CC[C@]2(C(=O)OC3OC(CO)C(O)C(O)C3O)CC[C@]3(C)C(=CC[C@@H]4[C@@]5(C)C[C@@H](O)[C@@H]6OC(=O)c7cc(O)c(O)c(O)c7-c7c(cc(O)c(O)c7O)C(=O)OC[C@@]6(CO)[C@@H]5CC[C@]43C)[C@H]12 (some centres not stated) | > 100 µM | 
44 | CC1=CCCC2C(C=O)(C1)CC(C)C2(CO)CC/C(=C/CO)CO (configuration not stated) | > 100 µM | 

Row | Compound | TGI | GI50
45 | CN(C)CCCNc1nc2ccccc2c2[nH]c3ccccc3c12 | 2.49 µM | 0.89 µM
46 | CC(C)(C)OC(=O)Nc1ccc2c(c1)C(NC(=O)Nc1cccc(C#N)c1)CC(C)(C)O2 (configuration not stated) | > 100 µM | 24.3 µM
47 | CNC(=O)CN(CC(=O)O)C(=O)NC | > 100 µM | 
48 | C=C1C[C@@H]2C[C@@H](C)CC(O)[C@]2(CCCN)C1O (some centres not stated) | > 100 µM | 
49 | C=C(C)[C@H]1CC23C(=O)[C@@](C)(C[C@H]2C1(C)C)C(=O)C(C(=O)C(C)C)=C3O | 49 µM | 
50 | CO[C@@]1(c2ccccc2)O[C@H]2OCCC2[C@H]1c1ccc(Cl)cc1 (some centres not stated) | > 100 µM | 
51 | CC[C@]12C=CCN3CCC4(c5cc([C@@]6(C(=O)OC)CC7CN(CCc8c6[nH]c6ccccc86)CC6CCCCC67)c(OC)cc5N(C)C4[C@](O)(C(=O)OC)C1OC(C)=O)[C@@H]32 (some centres not stated) | 4.97 µM | 
52 | C[N+](C)=c1ccc2nc3c(cc(NCCCNc4cc5oc6cc(=[N+](C)C)ccc-6nc5c5ccccc45)c4ccccc43)oc-2c1 | 6.53 µM | 2.06 µM
53 | COc1ccc2c(c1OC)C(=O)N1C2=Cc2c(cc3c(c2OC)OCO3)CC1N(C)C (configuration not stated) | > 100 µM | 
54 | C=C(C)[C@@H]1CC[C@]2(C(=O)NS(=O)(=O)c3ccccc3)CC[C@]3(C)[C@H](CC[C@@H]4[C@@]5(C)CC[C@H](OC(=O)NS(=O)(=O)c6ccccc6)C(C)(C)[C@@H]5CC[C@]43C)[C@@H]12 | 4.72 µM | 1.79 µM
55 | O=C([C@H](O)[C@@H](O)c1cccc(Cl)c1)C12CC3CC(CC(C3)C1)C2 | 5.73 µM | 
56 | CCC[CH2][Sn]1([CH2]CCC)[S]CC[N]1S(=O)(=O)c1ccc(C)cc1 | 3.08 µM | 1.71 µM
57 | COc1ccc2c(c1)CCc1c-2n[nH]c1-c1[nH]nc2c1CCc1cc(OC)ccc1-2 | > 100 µM | 
58 | O=C([O-])CC(=O)[O-].[NH-][C@@H]1CCCC[C@H]1[NH-].[Pt+4] | > 100 µM | > 87.2 µM
59 | CNC(=O)c1cncc(/C=C/c2ccccc2Cl)c1 | > 25 µM | > 25 µM
60 | O=c1c2cc([N+](=O)[O-])ccc2oc2nc3n(c(=O)c12)CCCS3 | > 100 µM | 
61 | COc1ccc(CC2C(=O)OC(C)C(NC(=O)c3c4nc5c(C(=O)NC6C(=O)NC(C(C)C)C(=O)N7CCCC7C(=O)N(C)CC(=O)N(C)C(Cc7ccc(OC)cc7)C(=O)OC6C)ccc(C)c5oc-4c(C)c(=O)c3N)C(=O)NC(C(C)C)C(=O)N3CCCC3C(=O)N(C)CC(=O)N2C)cc1 (configuration not stated) (I: TVP[Sar][NMeY](Me) / II: TVP[Sar][NMeY](Me); ester I:1-I:C, II:1-II:C; linker I:N-II:N via Actinocin(1to9); configuration not given here) |  | < 0.01 µM and 0.0288 µM
62 | CCOC(=O)C(NC(=O)c1cccc(Cl)c1)(Nc1cccc(C)c1)C(F)(F)F (configuration not stated) | 51.1 µM | 
63 | CC[C@H](C)[C@H](NC(=O)c1cccn1C)C(=O)N(C)[C@H](C[C@@H](OC(C)=O)c1nc(C(=O)N[C@@H](Cc2ccccc2)C[C@H](C)C(=O)OC)cs1)C(C)C | > 33.3 µM | 0.243 µM
64 | CCC(CO)Nc1nc2c(c(=O)n(C)c(=O)n2C)n1CCO (configuration not stated) | > 100 µM | 
65 | CNC(=S)N1CCN(C(C)=O)C1=S | > 100 µM | 
66 | O=C1C=CC(=O)c2c(O)c(N3CCC[C@@H]3CO)c(Cl)c(O)c21 | 2.28 µM | 

Row | Compound | TGI | GI50
67 | CC(=O)Oc1ccc2c(c1)C(=O)c1nc(C)c(C)nc1C2=O | > 100 µM | 
68 | CCC1=C(CC2NCCc3ccccc32)CC2c3cc(OC)c(OC)cc3CCN2C1 (configuration not stated) | 33.7 µM and 3.46 µM | 4.91 µM
69 | COc1cc2c(c(OC)c1)[C@H](C)N(Cc1ccccc1)C(C)C2 (some centres not stated) | > 100 µM | 
70 | c1ccc2c(c1)cc1ccc3cccc4ccc2c1c34 | 53.4 µM | 
71 | COC1(CC[C@H](C)COC2OC(CO)C(O)C(O)C2O)O[C@H]2C[C@H]3[C@@H]4CC=C5C[C@@H](OC6OC(CO)C(OC7OC(C)C(O)C(O)C7O)C(O)C6OC6OC(C)C(O)C(O)C6O)CC[C@]5(C)[C@H]4CC[C@]3(C)[C@H]2[C@@H]1C (some centres not stated) | 13.1 µM | 
72 | Nc1cccc2c1C(=O)c1cccc(NC(=O)c3ccccc3)c1C2=O | > 100 µM | 1.52 µM
73 | COc1ccc(OC(C)C(=O)O)c2c(=O)ccccc12 (configuration not stated) | > 100 µM | 
74 | COc1cc2nccc(Oc3ccc(NC(=O)c4cn(C(C)C)c(=O)n(-c5ccc(F)cc5)c4=O)cc3F)c2cc1OC | > 100 µM | > 35.1 µM
75 | CCOC(=O)c1c(-c2ccccc2)c(OC)cn1C | > 10 µM | 
76 | Cc1cc(-c2cc(C(C)(C)C)c(O)c(C(C)(C)C)c2)c(C)cc1-c1cc(C(C)(C)C)c(O)c(C(C)(C)C)c1 | > 100 µM | 
77 | COc1ccc(S(=O)(=O)N(C(C)=O)c2ccccc2/C=C/c2cc[n+]([O-])cc2)cc1 | > 10 µM | 1.14 µM
78 | CC(C)(C)c1ccnc(N=C2N=C(Nc3cc(C(C)(C)C)ccn3)c3ccccc32)c1 | 47.9 µM | 
79 | COC(=O)[C@H](Cc1cn(C)cn1)NC(=O)[C@H](Cc1ccccc1)NC(=O)Nc1cc(C(F)(F)F)cc(C(F)(F)F)c1 | 33.5 µM | 18.9 µM
80 | COC(=O)N[C@H]1CCc2c(Cl)c(OC)c(OC)c(OC)c2-c2ccc(SC)c(=O)cc21 | > 100 µM | < 0.01 µM
81 | CC(C)=CCc1c(O)cc2oc(-c3ccc(O)cc3O)cc(=O)c2c1O | > 100 µM | 
82 | COC(=O)N/N=C(\C)CC(=O)Nc1ccc(Cl)cc1 | > 100 µM | 
83 | COc1ccc([C@@H]2OC(=O)C3C2C(=O)O[C@H]3c2ccc(OC)c(OC)c2)cc1OC (some centres not stated) | > 100 µM | 
84 | O/N=C/c1ccc(O)c(O)c1 | > 100 µM | 
85 | COc1cc2c(cc1OCc1ccccc1)NC(=O)[C@@H]1CCCN1C2=O | > 100 µM | 
86 | N#CCCN(CCC#N)c1ccc(C(N=Nc2ccccc2)=Nc2ccc(F)cc2)cc1 | > 100 µM | 
87 | O=C(c1ccco1)N(C(=O)N1CCC(c2ccccc2)CC1)c1ccccc1 | > 100 µM | 
